The other results are listed elsewhere or left out. Each Rep nickase domain was tested in vitro on the same pool of single strands (3 µM enzyme, 1 h, 37 °C); shown is the middle of each 90-letter strand. A value is the log2 ratio of uncut reads to the pool without enzyme; more negative means more cut, near 0 not cut, and no call is made. Shares of all reads are compared; where an enzyme cuts many sequences, the uncut ones exceed 0.
Tests used:
Experiment in all cases: uncleaved DNA left, log2 of reads against the no-enzyme library (log2 ratio); higher = less cleavage (more negative = more Rep cleavage of the k-mer); sequences stand for … in CTCGTCCG…ACCGGAGA
[1] = tested on: T1, Rep nickase domain of Muscovy duck circovirus
T1 sequence (residues 1-111 of Rep, tag left off): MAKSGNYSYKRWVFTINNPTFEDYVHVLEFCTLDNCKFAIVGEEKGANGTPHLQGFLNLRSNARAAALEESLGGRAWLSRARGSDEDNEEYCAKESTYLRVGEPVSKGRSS
Procedure: (§1)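 A pool of 90-nt single-stranded DNAs with seven random bases just before the constant AC of the nick site (name = the seven bases) was cut by 3 µM recombinant His6-SUMO-tagged Rep nickase domain (300 nM DNA, 50 mM HEPES pH 8.0, 50 mM NaCl, 1 mM MnCl2, 1 h, 37 °C, three replicates). Uncut DNA was amplified and sequenced.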

[2] = tested on: T2, Rep nickase domain of banana bunchy top virus
T2 sequence (residues 1-94 of Rep, tag left off): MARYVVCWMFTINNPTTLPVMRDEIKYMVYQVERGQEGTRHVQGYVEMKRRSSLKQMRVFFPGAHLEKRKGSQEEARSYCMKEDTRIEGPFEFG
Procedure: as §1

[3] = tested on: T3, Rep nickase domain of cabbage leaf curl virus
T3 sequence (residues 1-116 of Rep, tag left off): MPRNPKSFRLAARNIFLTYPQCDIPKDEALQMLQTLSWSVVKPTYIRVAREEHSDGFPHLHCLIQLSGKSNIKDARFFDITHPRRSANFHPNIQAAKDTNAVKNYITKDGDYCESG
Procedure: as §1

[4] = tested on: T4, Rep nickase domain of chickpea chlorotic dwarf virus
T4 sequence (residues 1-124 of Rep, tag left off): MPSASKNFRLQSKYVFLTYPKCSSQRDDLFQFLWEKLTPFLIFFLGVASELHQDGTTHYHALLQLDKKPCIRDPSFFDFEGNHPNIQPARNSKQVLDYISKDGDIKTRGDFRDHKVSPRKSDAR
Procedure: as §1

[5] = tested on: T5, Rep nickase domain of faba bean necrotic yellows virus
T5 sequence (residues 1-98 of Rep, tag left off): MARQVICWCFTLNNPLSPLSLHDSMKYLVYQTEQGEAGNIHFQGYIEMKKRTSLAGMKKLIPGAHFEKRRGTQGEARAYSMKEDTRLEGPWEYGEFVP
Procedure: as §1

[6] = tested on: T6, Rep nickase domain of maize striate mosaic virus
T6 sequence (residues 1-117 of Rep, tag left off): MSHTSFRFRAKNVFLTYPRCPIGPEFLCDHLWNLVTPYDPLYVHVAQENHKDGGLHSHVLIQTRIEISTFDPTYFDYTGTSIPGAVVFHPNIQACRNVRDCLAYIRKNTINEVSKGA
Procedure: as §1

[7] = tested on: T7, Rep nickase domain of porcine circovirus 2
T7 sequence (residues 2-116 of Rep, tag left off): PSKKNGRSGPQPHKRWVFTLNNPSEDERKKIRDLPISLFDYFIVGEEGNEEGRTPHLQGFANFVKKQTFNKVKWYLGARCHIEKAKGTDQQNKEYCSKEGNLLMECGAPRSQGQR
Procedure: as §1

[8] = tested on: T8, Rep nickase domain of tomato golden mosaic virus
T8 sequence (residues 1-124 of Rep, tag left off): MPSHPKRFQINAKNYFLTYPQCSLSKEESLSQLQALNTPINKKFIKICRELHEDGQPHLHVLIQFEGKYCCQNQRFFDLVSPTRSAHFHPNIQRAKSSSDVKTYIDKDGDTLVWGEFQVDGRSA
Procedure: as §1

[9] = tested on: T9, Rep nickase domain of tomato yellow leaf curl virus
T9 sequence (residues 1-136 of Rep, tag left off): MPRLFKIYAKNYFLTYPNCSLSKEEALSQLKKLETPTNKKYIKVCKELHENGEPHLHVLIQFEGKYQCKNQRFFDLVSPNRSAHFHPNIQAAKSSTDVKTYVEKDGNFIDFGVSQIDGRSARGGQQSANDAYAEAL
Procedure: as §1

[10] = tested on: T10, Rep nickase domain of wheat dwarf virus
T10 sequence (residues 1-137 of Rep, tag left off): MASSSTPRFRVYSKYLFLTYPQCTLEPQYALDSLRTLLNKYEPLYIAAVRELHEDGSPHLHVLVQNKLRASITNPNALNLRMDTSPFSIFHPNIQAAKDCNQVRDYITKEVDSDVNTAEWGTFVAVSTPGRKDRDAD
Procedure: as §1

Row | Sequence | uncleaved DNA left (log2) [1] | uncleaved DNA left (log2) [2] | uncleaved DNA left (log2) [3] | uncleaved DNA left (log2) [4] | uncleaved DNA left (log2) [5] | uncleaved DNA left (log2) [6] | uncleaved DNA left (log2) [7] | uncleaved DNA left (log2) [8] | uncleaved DNA left (log2) [9] | uncleaved DNA left (log2) [10]
1 | GCCGAAA | -0.0111 | -0.0721 | 0.23 | 0.572 | -0.0522 | 0.345 | 0.231 | -0.00524 | 0.1 | 0.256
2 | AGGAAAA | 0.0993 | 0.0688 | 0.339 | 0.831 | 0.0821 | 0.4 | 0.135 | 0.0545 | 0.105 | 0.152
3 | TAATCGA | 0.174 | 0.128 | -2.83 | -2.3 | 0.143 | -1.82 | 0.0904 | -0.369 | 0.0378 | -0.951
4 | CGCAGTA | -0.021 | 0.00617 | 0.0985 | -0.411 | 0.0937 | -0.228 | 0.121 | 0.0882 | 0.00839 | 0.0939
5 | AACAGAG | -0.0161 | -0.0274 | -0.75 | -0.476 | 0.0127 | -1.18 | 0.0842 | -0.0519 | -0.00431 | -0.177
6 | CGCTGCC | -0.196 | -0.141 | -0.172 | -0.0524 | -0.0389 | -0.153 | -0.13 | -0.239 | -0.138 | -0.231
7 | ATCAGGG | -0.0204 | 0.0427 | -0.371 | -0.248 | 0.0486 | -0.922 | 0.158 | 0.0133 | -0.0722 | -0.115
8 | TAAGGCC | 0.0671 | 0.0384 | 0.129 | 0.047 | 0.0394 | 0.447 | -0.125 | 0.132 | 0.051 | 0.0531
9 | GAGTGCA | 0.0866 | -0.0327 | -0.0764 | -0.0942 | 0.0344 | -0.213 | -2.52 | 0.139 | 0.0226 | 0.0821
10 | GAGGCTG | 0.0787 | -0.0162 | 0.179 | 0.885 | -0.0319 | 1.73 | 0.0177 | 0.0669 | -0.0383 | -0.0356
11 | ATATCTA | -0.189 | -0.109 | -0.22 | -1.44 | -0.0485 | -0.861 | -0.359 | -0.165 | 0.00685 | 0.0356
12 | ATTAAAA | 0.0793 | 0.183 | 0.121 | 0.129 | 0.103 | -0.568 | 0.135 | 0.0668 | 0.115 | 0.122
13 | TCGCTCA | -0.177 | -0.115 | -0.0452 | -1.07 | -0.0445 | -0.516 | -0.208 | -0.169 | 0.0122 | -0.0532
14 | GGTCCAC | 0.16 | 0.272 | 0.657 | 1.32 | 0.148 | 1.95 | 0.381 | 0.244 | 0.229 | 0.248
15 | TTGCTAA | 0.046 | 0.0741 | -0.146 | -0.191 | -0.123 | -0.753 | 0.0462 | -0.0738 | 0.15 | -0.0294
16 | CCTACGA | 0.0907 | -0.113 | -0.0652 | -0.99 | -0.0591 | -0.85 | 0.147 | 0.0194 | -0.0716 | -0.0276
17 | CCCGCTG | 0.0397 | -0.0686 | 0.196 | 0.822 | -0.0912 | 1.13 | 0.146 | 0.101 | -0.0583 | -0.0202
18 | GTATGTA | 0.0201 | 0.00209 | 0.328 | 0.698 | 0.0715 | 1.42 | -0.012 | 0.00687 | 0.0869 | 0.126
19 | GGGAGTT | 0.0174 | 0.138 | 0.791 | 1.94 | 0.0567 | 2.24 | 0.178 | 0.0442 | 0.0412 | 0.0339
20 | CATGTAC | 0.0454 | -0.0146 | -0.134 | -0.546 | 0.137 | -0.814 | 0.127 | 0.0992 | 0.117 | 0.0507
21 | TCAAGAC | 0.02 | 0.0144 | 0.136 | 0.296 | 0.0545 | 0.0257 | 0.242 | 0.00911 | 0.00454 | 0.0443
22 | GGGTTTA | -0.043 | 0.0562 | 0.739 | 1.51 | -0.0953 | 2.05 | 0.0908 | -0.0292 | 0.0539 | 0.13
23 | TTGTGCT | -1.4 | -0.402 | -0.82 | -1.75 | -0.479 | -1.24 | -3.27 | -0.376 | -0.109 | -0.344
24 | ACGCCAG | -0.0675 | -0.0987 | -0.655 | -0.669 | -0.0175 | -1.12 | 0.015 | -0.0601 | -0.148 | -0.262
25 | CATAGTG | 0.0255 | -0.05 | -0.626 | -0.468 | 0.0882 | -1.1 | 0.0981 | -0.0125 | 0.189 | -0.148
26 | CCTGATA | 0.00392 | -0.235 | -0.374 | -1.18 | -0.0706 | -0.467 | -0.0571 | -0.132 | -0.134 | -0.0716
27 | GAGACAA | 0.103 | 0.115 | 0.905 | 2.19 | 0.0939 | 2.24 | 0.269 | 0.13 | 0.0546 | 0.238
28 | CCGACCT | -0.0475 | 0.0399 | -0.0457 | -0.399 | -0.0328 | 0.0276 | -0.104 | -0.0982 | -0.0401 | -0.0716
29 | CGCAGGA | -0.0349 | -0.0963 | 0.0398 | 0.363 | -0.182 | -0.132 | -0.0175 | -0.0993 | -0.0985 | -0.14
30 | GCATTCA | -0.031 | 0.0156 | 0.131 | -0.144 | 0.061 | -0.0666 | 0.0385 | 0.147 | 0.0487 | 0.0285
